# The supplement of paper PMC7826260
# Some of the results follow. Viral Rep nickase domains cut single-stranded DNA in vitro at 3 µM enzyme and 37 °C for 1 h; the strands have 90 letters, of which the middle is given. Values are log2 of uncut reads against the no-enzyme pool; the lower, the more was cut; hits are not called. Shares of all reads are compared; uncut strands gain when others are lost, and binding without cutting may add a little.
# Tests used:
# Assay in all cases: uncleaved DNA left, log2 of reads against the no-enzyme library (log2 ratio); higher = less cleavage (more negative = more Rep cleavage of the k-mer); sequences stand for … in CTCGTCCG…ACCGGAGA
# [1] = test system: T1, Rep nickase domain of Muscovy duck circovirus
# T1 sequence (Rep 1-111, printed without the tag): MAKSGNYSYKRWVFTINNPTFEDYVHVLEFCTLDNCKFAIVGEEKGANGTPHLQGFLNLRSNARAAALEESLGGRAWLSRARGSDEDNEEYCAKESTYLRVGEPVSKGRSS
# Experimental: (§1)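 A pool of 90-nt single-stranded DNAs with seven random bases just before the constant AC of the nick site (name = the seven bases) was cut by 3 µM recombinant His6-SUMO-tagged Rep nickase domain (300 nM DNA, 50 mM HEPES pH 8.0, 50 mM NaCl, 1 mM MnCl2, 1 h, 37 °C, three replicates). Uncut DNA was amplified and sequenced.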
# [2] = test system: T2, Rep nickase domain of banana bunchy top virus
# T2 sequence (Rep 1-94, printed without the tag): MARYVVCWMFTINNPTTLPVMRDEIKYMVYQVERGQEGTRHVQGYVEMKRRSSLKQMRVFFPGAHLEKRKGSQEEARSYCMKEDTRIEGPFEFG
# Experimental: as §1
# [3] = test system: T3, Rep nickase domain of cabbage leaf curl virus
# T3 sequence (Rep 1-116, printed without the tag): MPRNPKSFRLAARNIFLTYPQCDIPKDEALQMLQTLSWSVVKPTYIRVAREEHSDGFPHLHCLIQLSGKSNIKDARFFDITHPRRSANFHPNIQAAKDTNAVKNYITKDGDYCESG
# Experimental: as §1
# [4] = test system: T4, Rep nickase domain of chickpea chlorotic dwarf virus
# T4 sequence (Rep 1-124, printed without the tag): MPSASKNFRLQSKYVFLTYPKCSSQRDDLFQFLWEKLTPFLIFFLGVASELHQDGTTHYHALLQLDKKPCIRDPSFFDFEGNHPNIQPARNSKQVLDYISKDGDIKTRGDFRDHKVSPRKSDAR
# Experimental: as §1
# [5] = test system: T5, Rep nickase domain of faba bean necrotic yellows virus
# T5 sequence (Rep 1-98, printed without the tag): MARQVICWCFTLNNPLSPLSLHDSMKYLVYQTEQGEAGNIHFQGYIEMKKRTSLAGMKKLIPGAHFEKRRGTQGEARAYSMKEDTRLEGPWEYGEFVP
# Experimental: as §1
# [6] = test system: T6, Rep nickase domain of maize striate mosaic virus
# T6 sequence (Rep 1-117, printed without the tag): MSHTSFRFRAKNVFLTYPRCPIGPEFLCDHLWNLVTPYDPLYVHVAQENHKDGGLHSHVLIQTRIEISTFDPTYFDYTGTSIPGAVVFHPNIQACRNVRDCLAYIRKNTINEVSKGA
# Experimental: as §1
# [7] = test system: T7, Rep nickase domain of porcine circovirus 2
# T7 sequence (Rep 2-116, printed without the tag): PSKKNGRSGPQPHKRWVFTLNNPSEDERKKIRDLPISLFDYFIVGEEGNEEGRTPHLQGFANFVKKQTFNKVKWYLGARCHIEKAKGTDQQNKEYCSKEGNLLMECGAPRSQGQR
# Experimental: as §1
# [8] = test system: T8, Rep nickase domain of tomato golden mosaic virus
# T8 sequence (Rep 1-124, printed without the tag): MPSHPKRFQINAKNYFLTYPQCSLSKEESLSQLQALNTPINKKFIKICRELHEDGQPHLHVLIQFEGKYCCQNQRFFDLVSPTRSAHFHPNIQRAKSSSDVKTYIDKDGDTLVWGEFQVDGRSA
# Experimental: as §1
# [9] = test system: T9, Rep nickase domain of tomato yellow leaf curl virus
# T9 sequence (Rep 1-136, printed without the tag): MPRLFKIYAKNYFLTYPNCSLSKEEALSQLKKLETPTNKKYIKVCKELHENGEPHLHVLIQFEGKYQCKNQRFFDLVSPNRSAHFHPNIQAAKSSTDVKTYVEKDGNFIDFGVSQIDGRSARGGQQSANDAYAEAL
# Experimental: as §1
# [10] = test system: T10, Rep nickase domain of wheat dwarf virus
# T10 sequence (Rep 1-137, printed without the tag): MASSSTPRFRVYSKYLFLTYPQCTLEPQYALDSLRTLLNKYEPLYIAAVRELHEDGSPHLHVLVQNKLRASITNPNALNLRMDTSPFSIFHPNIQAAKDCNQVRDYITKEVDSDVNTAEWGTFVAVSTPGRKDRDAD
# Experimental: as §1
Sequence,uncleaved DNA left (log2) [1],uncleaved DNA left (log2) [2],uncleaved DNA left (log2) [3],uncleaved DNA left (log2) [4],uncleaved DNA left (log2) [5],uncleaved DNA left (log2) [6],uncleaved DNA left (log2) [7],uncleaved DNA left (log2) [8],uncleaved DNA left (log2) [9],uncleaved DNA left (log2) [10]
TTCGTAT,0.0851,0.0129,0.159,-0.438,0.0651,-0.298,-7.87e-06,0.0161,-0.0153,-0.0224
CGATCTA,0.0221,-0.0901,-0.00397,0.139,-0.12,0.871,-0.125,-0.184,-0.0535,0.0413
ATAATGA,-0.0278,-0.0595,0.0446,-0.156,0.0665,-1.04,0.00171,0.0699,-0.0531,0.0273
CCTTGAC,-0.208,-0.269,-0.291,-2.18,-0.165,-1.13,0.0143,-0.101,-0.206,-0.253
TATCAGG,-0.0104,-0.0885,0.476,1.21,-0.113,1.42,-0.0288,0.0587,-0.198,-0.0398
GAATAAA,0.181,0.31,0.383,0.436,0.241,0.782,0.0847,0.318,0.25,0.21
CCGGTTC,0.0215,0.00539,0.327,0.226,0.0451,1.4,0.0353,0.15,-0.0513,-0.0357
ATGTTGC,-0.015,-0.104,-0.629,-0.196,0.0454,-1.01,0.147,-0.0911,-0.0138,-0.123
TTCTAAT,-2.97,-0.159,-0.156,-0.927,0.17,-0.14,-3.5,0.0457,0.0883,0.0628
TAGTTTA,-0.32,-0.444,-0.348,-2.42,-0.891,-0.234,-2.87,-0.03,0.0123,0.0216
CGACTAC,0.169,-0.028,0.0375,0.382,0.166,1,0.115,-0.0648,0.0303,0.176
GGACTCC,-0.131,0.037,0.606,1.51,-0.12,1.94,0.0355,-0.207,-0.0332,0.0527
ACGAGCT,-0.0493,-0.0374,-0.415,-0.634,3.5e-05,-0.858,-0.159,0.0561,-0.0282,-0.0803
CCGACTC,-0.0121,-0.135,-0.0543,0.27,-0.00882,0.706,-0.24,-0.137,-0.11,-0.109
TGTTTAC,0.122,0.0433,0.433,0.677,0.091,1.88,0.136,0.23,0.106,0.17
GGCACAC,-0.0431,-0.00402,0.671,1.61,-0.0481,2.08,0.0879,-0.129,0.0458,0.138
GAGCGAT,0.0844,-0.00183,0.199,0.744,0.0395,1.23,-0.105,0.115,0.0811,0.0765
GGGACGT,0.054,0.0662,0.908,2.08,-0.0264,2.29,0.222,0.0856,-0.157,0.12
GGGTAGC,0.0776,0.128,0.835,1.83,-0.000806,2.16,0.234,0.0828,0.129,0.232
GAAGCTC,0.152,0.108,0.243,0.36,0.0581,0.787,-0.0561,0.138,0.0505,0.00745

Sequence,uncleaved DNA left (log2) [1],uncleaved DNA left (log2) [2],uncleaved DNA left (log2) [3],uncleaved DNA left (log2) [4],uncleaved DNA left (log2) [5],uncleaved DNA left (log2) [6],uncleaved DNA left (log2) [7],uncleaved DNA left (log2) [8],uncleaved DNA left (log2) [9],uncleaved DNA left (log2) [10]
ATCGACC,0.114,0.139,0.0481,0.537,0.126,-0.198,0.231,0.0909,0.15,0.129
TAAGAGA,0.0905,-0.0749,0.201,-0.216,0.0276,-0.17,0.134,0.0723,-0.114,0.05
TTGTCCG,0.0163,-0.0584,-0.812,-0.0186,-0.0661,-1.06,-0.0334,-0.151,-0.0877,-0.247
GATTATG,-0.0295,-0.0879,-0.34,-0.265,-0.0405,-0.88,-0.109,-0.078,0.0306,-0.0481
AGCCTCG,-0.0483,-0.0714,-0.485,-0.391,-0.138,-0.77,0.0651,-0.017,-0.0182,-0.161
GACCAAA,-0.116,-0.0328,0.138,0.368,-0.0158,0.204,-0.0238,-0.0836,-0.0297,0.0685
CAGACAG,-0.0435,0.0987,-0.0737,0.158,0.116,-0.399,0.184,0.0626,0.0168,0.0243
GATCCAC,0.0465,0.0631,0.285,0.677,0.032,0.681,0.0295,0.0659,0.0836,0.201
ACACGTA,-0.0414,-0.0491,-0.534,-1.03,0.0455,-0.948,0.0224,-0.0785,-0.219,-0.2
GGGTGGG,0.0926,0.0591,0.524,1.12,0.0619,1.19,0.276,0.0788,-0.00669,0.0261
TATGGGC,0.0354,-0.00564,0.155,0.223,0.0225,-0.244,0.103,0.0974,0.0283,-0.13
CGAAACA,0.0894,0.151,-0.0181,-1.46,0.0903,-0.354,-0.0686,0.197,0.223,0.142
CTTTTCT,-2.5,-0.178,-0.315,-2.62,-0.172,-0.908,-2.46,-0.184,-0.126,-0.0577
CCTTTGC,-0.0386,0.008,-0.799,-0.351,0.0708,-0.994,0.13,-0.0447,0.0929,0.0623
ACGATAT,-0.0243,-0.0773,-0.00652,-0.487,-0.0681,-0.185,0.0479,0.0956,0.0251,0.0466
TCAAAGT,0.0175,-0.0173,0.0449,-0.594,-0.00342,-1.05,0.0755,-0.0383,0.00266,-0.105
TGGCATT,0.188,0.111,0.816,1.86,0.0233,2.22,0.193,-0.166,0.0707,0.113
GTCTTCG,0.0612,0.0926,0.19,0.588,0.122,0.865,0.19,0.218,0.053,0.229
GGCTGGT,-0.0233,0.0718,0.208,0.81,-0.111,1.61,-0.285,-0.0621,0.0937,0.038
GAATCCA,-0.112,0.0619,-0.619,-1.53,-0.0584,0.452,-0.626,-0.0322,0.0147,-0.113

Sequence,uncleaved DNA left (log2) [1],uncleaved DNA left (log2) [2],uncleaved DNA left (log2) [3],uncleaved DNA left (log2) [4],uncleaved DNA left (log2) [5],uncleaved DNA left (log2) [6],uncleaved DNA left (log2) [7],uncleaved DNA left (log2) [8],uncleaved DNA left (log2) [9],uncleaved DNA left (log2) [10]
GGTCGGA,0.122,-0.0162,0.571,1.2,-0.186,1.64,0.187,0.0871,0.116,0.0561
GTTTTAA,-0.0784,0.095,0.292,0.79,-0.00268,1.78,0.133,0.117,0.115,0.00132
CTGGCTG,0.0576,0.0268,0.19,0.859,0.0238,1.46,0.148,0.0576,-0.0738,-0.0107
CTCGAAG,0.0472,0.0162,-0.728,-0.404,0.0359,-0.962,0.305,0.109,0.0771,-0.0336
GGGGCAC,-0.0619,0.0818,0.78,2.04,-0.0732,2.24,0.202,0.00966,-0.0358,0.0917
GGCAACA,-0.174,-0.0236,0.543,1.17,-0.0302,1.78,0.159,-0.0431,-0.0884,0.0688
CCATTTA,0.047,-0.074,-0.152,-1.34,-0.105,-1.04,0.046,-0.0372,0.123,-0.00449
GGCGTTG,0.0155,-0.0678,-0.0916,0.422,-0.122,1.44,-0.0377,-0.0304,-0.143,-0.152
TACCATC,0.105,-0.0495,-0.211,-1.38,0.025,-0.88,-0.577,-0.0551,-0.0116,0.036
AAAGGCC,0.121,0.108,0.155,0.369,0.08,0.00346,0.0728,0.0675,-0.0418,0.156
AAAACAT,0.081,0.115,-0.0104,-0.841,0.0733,0.68,0.0166,0.0246,0.0817,0.19
GCAATCC,0.0592,0.0801,-0.0839,0.315,0.0279,0.142,0.191,0.0195,0.109,0.0502
TAAACCT,-0.265,-0.119,-3.85,-3.32,-0.0933,-2.58,-1.86,-3.07,-0.0451,-3.57
GCCGTTT,-0.0225,-0.162,0.201,-0.534,-0.0778,0.228,-0.178,-0.0306,-0.0698,-0.193
ATTTTCT,-3.06,-1.58,-0.185,-2.5,0.0678,-0.769,-3.47,-0.052,0.1,-0.0499
GCAAAAG,0.00692,-0.0652,-0.752,-0.355,0.0577,-1.1,0.233,0.0464,-0.00302,-0.0732
AGCGGAT,0.0751,0.209,0.326,1.53,0.139,1.89,0.294,0.213,-0.061,0.0681
TCGCGAT,-0.0491,-0.0458,-0.215,-0.0211,0.0396,-0.316,0.0788,-0.00958,-0.106,-0.243
CTAACAT,0.112,0.125,-0.161,-0.839,0.017,0.142,-0.048,-0.0298,0.00555,0.0706
AAGCAAG,0.0296,0.0459,-0.447,-0.569,0.0167,-1.01,0.323,0.0248,0.0658,0.092
